Measurements from PubChem BioAssay AID624418 (National Center for Advancing Translational Sciences (NCATS), 2012).
In all, about 410,000 compounds went through this assay and about 530 (0.13%) were called active. The shares of active, inactive and inconclusive entries below differ from those in the screen. The call rests on the fitted dose curve; in most records, active means well fitted inhibition curve with a large enough effect; inconclusive means small, poorly fitted or top-dose-only effect, or another doubt; inactive means no such curve, though single readings can be large or run the other way. A potency beside an inconclusive call is a rough fit, not a confirmed value.

Test: qHTS of GLP-1 Receptor Inverse Agonists: Cytotox Screen
Conditions: HEK293 cAMP-luciferase reporter cells, luminescence, 24 h; series mostly up to 38.3 µM
How it was run: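 MLSMR compounds, 24 hr on cells at 37 deg C/5% CO2; luminescence after luciferase reagent (12 min RT). Inhibition counted as the undesired cytotoxic outcome.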
Potency means the concentration at half of the fitted maximal effect.

SMILES | Potency
COc1cc(C(=O)Nc2nc(OC)c(-c3ccccc3)c(OC)n2)cc(OC)c1OC | inconclusive: 1.12 µM [inhibitor, full curve, poor fit]
COc1ccc(OC)c(Nc2c3ccccc3nc3ccccc23)c1 | inactive
COc1ccc(NS(=O)(=O)c2cnc(N)nc2)cc1Cl | inactive
O=C(N[C@@H](c1ccccc1)[C@H](O)c1ccccc1)[C@@H]1CCCN1C(=O)OCc1ccccc1 | inconclusive: 6.31 µM [inhibitor, partial curve, poor fit]
CC(CSc1nc2ccccc2s1)Cn1c(N2CCCC2)nc2c1c(=O)[nH]c(=O)n2C (centres undefined) | inconclusive: 28.2 µM [inhibitor, single point]
Cc1ccc(-n2cccc2/C=C2/C(=N)N3C(=NC2=O)SN=C3S(C)(=O)=O)cc1Cl | inconclusive: 28.2 µM [inhibitor, single point]
COc1ccccc1/C=C1\SC(=S)N(CCC(=O)N2CCN(C)CC2)C1=O | inconclusive: 12.6 µM [inhibitor, partial curve, poor fit]
Cc1ccc(C(=O)N(CCc2ccccc2)Cc2ccccc2)cc1S(=O)(=O)N1CCOCC1 | inactive
CC(C)=CCC/C(C)=C/CNC(=O)C[C@H]1C[C@H](C(=O)N(C(C)C)C(C)C)[C@@]2(C)c3[nH]c4cc(CCC(=O)N(C)C)ccc4c3CCN2C1=O | inconclusive: 28.2 µM [inhibitor, single point]
CCOC(=O)c1cnc2c(Cl)c(Cl)ccc2c1N1CCN(C)CC1 | inconclusive: 28.2 µM [inhibitor, single point]
CCOC(=O)c1ccc(NS(=O)(=O)c2ccc(-c3coc(C)n3)cc2)cc1 | inconclusive: 1.58 µM [inhibitor, partial curve, poor fit]
Cc1cc(C)c2cccc(NC(=S)NC(=O)c3ccccc3)c2n1 | inconclusive: 5.01 µM [inhibitor, full curve, poor fit]
CCN(CC)C(=O)CSc1n[nH]c(=O)n1CCc1ccccc1 | inactive
Cc1ccc(NC(=O)Cn2cnc3c(oc4ccccc43)c2=O)cc1Cl | inactive
C/C(=N\Nc1nc2ccccc2[nH]1)c1ccc2c(c1)OCCO2 | inconclusive: 28.2 µM [inhibitor, single point]
COc1ccc(C(=O)NCC(=O)OCC(=O)N2CC(C)CC(C)C2)cc1 (centres undefined) | inactive
COc1ccc(CN2CCN(CC(O)Cn3c4ccccc4c4ccccc43)CC2)cc1 (centres undefined) | inconclusive: 28.2 µM [inhibitor, single point]
CCOc1ccc(C(NC(=O)CC)c2c(O)ccc3ccccc23)cc1 (centres undefined) | inconclusive: 8.91 µM [inhibitor, partial curve, poor fit]
COc1ccccc1NC(=O)/C=C/c1ccc2c(c1)OCO2 | inconclusive: 8.91 µM [inhibitor, partial curve, poor fit]
COc1cccc(-c2cc(=O)c3cc(NC(=O)c4ccccc4)ccc3[nH]2)c1 | inconclusive: 10 µM [inhibitor, partial curve, poor fit]
CCS(=O)(=O)c1ncc(Cl)c(C(=O)Nc2ccc(S(=O)(=O)N(C)c3ccccc3)cc2)n1 | inconclusive: 14.1 µM [inhibitor, single point]
O=c1cc(Br)c(O)c(Br)cc1Br | inconclusive: 8.91 µM [inhibitor, partial curve]

SMILES | Potency
Cc1ccc(CC(=O)Nc2ncc([N+](=O)[O-])s2)cc1 | inconclusive: 10 µM [inhibitor, single point]
O=C(NC(=S)N1CCCC1)c1ccccc1F | inconclusive: 28.2 µM [inhibitor, single point]
N#C/C(=N\Nc1ccccc1)C(N)=S | inconclusive: 6.31 µM [inhibitor, partial curve, poor fit]
Cc1ccc(C(=O)N/N=C/c2cn(Cc3ccccc3)c3ccccc23)cn1 | inconclusive: 22.4 µM [inhibitor, single point]
Fc1ccc(-c2c[nH]c(=S)n2Cc2ccccc2)cc1 | inconclusive: 11.2 µM [inhibitor, single point]
Cc1ccccc1NS(=O)(=O)c1cc(C(=O)Nc2cccc(N(C)S(C)(=O)=O)c2)ccc1C | inconclusive: 31.6 µM [inhibitor, single point]
COc1cccc(C(=O)NC(=S)Nc2ccc(N(C)C)cc2)c1 | inconclusive: 14.1 µM [inhibitor, single point]
CC(C)CC(=O)NC(=S)Nc1ccc(N2CCOCC2)cc1 | inactive
C/C(=N\NC(=S)NC1CCCCC1)c1ccc(C)o1 | inconclusive: 4.47 µM [inhibitor, partial curve]
CSC(=S)N/N=C(\C)c1ccccc1 | inconclusive: 1 µM [inhibitor, full curve, poor fit]
Cc1ccc(CNC(=O)C2CC(=O)N(C3CCCCCCC3)C2)cc1 (centres undefined) | inconclusive: 14.1 µM [inhibitor, single point]
CC(C)Oc1ccc(/C=N/NC(N)=S)cc1 | inconclusive: 11.2 µM [inhibitor, partial curve, poor fit]
N#CCc1c(C#N)c(N)nc(N2CCCC2)c1C#N | inconclusive: 3.55 µM [inhibitor, full curve, poor fit]
CCOc1ccc(NC(=O)CN(C)C(=O)c2csc3c2CCCC3)cc1OCC | inconclusive: 10 µM [inhibitor, single point]
Oc1ccc(N=Nc2n[nH]c(-c3ccc(Cl)cc3)n2)cc1 | inconclusive: 31.6 µM [inhibitor, single point]
Cc1ccc(/C=C/C(=O)c2ccccc(=O)c2O)cc1C | inconclusive: 28.2 µM [inhibitor, single point]
O=S(=O)(N/N=C\c1ccccc1O)c1ccc(Cl)cc1 | inconclusive: 28.2 µM [inhibitor, single point]
CNC(=O)COC(=O)c1ccccc1C(=O)c1ccc(Cl)c([N+](=O)[O-])c1 | inconclusive: 12.6 µM [inhibitor, single point]
CCn1c(SCC(=O)Nc2ccc3c(c2)c2ccccc2n3CC)nnc1-c1cnccn1 | inconclusive: 3.16 µM [inhibitor, partial curve, poor fit]
Cc1cc2nc(C3CCN(Cc4nnnn4Cc4cccs4)CC3)[nH]c2cc1C | inconclusive: 5.01 µM [inhibitor, partial curve]
CCc1ccc2occ(CC(=O)N(Cc3ccccc3)C3CCS(=O)(=O)C3)c2c1 (centres undefined) | inactive
COCCn1c(COc2ccc(C)cc2)nc2ccccc21 | inactive

SMILES | Potency
O=C(CNC(=O)c1cnccc1C(F)(F)F)c1cccc(Cl)c1 | inconclusive: 28.2 µM [inhibitor, single point]
CN(C(=O)c1ccc(NC(=O)C2CCCN(C(=O)OC(C)(C)C)C2)cc1)C1CCCCC1 (centres undefined) | inconclusive: 14.1 µM [inhibitor, single point]
COc1cccc2sc(Nc3nnc(-c4ccc(F)cc4)o3)nc12 | inconclusive: 20 µM [inhibitor, single point]
Cc1ccc2nc(-c3ccc(NC(=O)CN4C(=O)NC(C)(c5ccc(OC(F)F)cc5)C4=O)cc3)sc2c1 (centres undefined) | inactive
CCCCc1c(CCC)c(=N)c2ccccc2n1C | inconclusive: 11.2 µM [inhibitor, partial curve, poor fit]
CC1(C)OC(C(O)(c2ccccc2)c2ccccc2)[C@@H](C(O)(c2ccccc2)c2ccccc2)O1 (some centres undefined) | inactive
COc1cccc(CNC(=O)c2cccc(N3CCCS3(=O)=O)c2)c1 | inactive
COC(=O)c1sc(N)c(C(=O)OC)c1COC(=O)c1c(C)noc1C | inconclusive: 1 µM [inhibitor, full curve, poor fit]
CCCn1c(=O)sc2cc(NC(=O)c3ccccc3Cl)ccc21 | inconclusive: 11.2 µM [inhibitor, partial curve, poor fit]
CS(=O)(=O)c1ccc(NCCc2ccccn2)c([N+](=O)[O-])c1 | inconclusive: 0.501 µM [inhibitor, full curve, poor fit]
S=C(NCc1ccccc1)Nc1nccs1 | inconclusive: 1.78 µM [inhibitor, full curve, poor fit]
Nc1ccc(C(=O)NN2C(=O)[C@H](Cl)C2c2ccc(Cl)cc2)cc1 (some centres undefined) | inconclusive: 10 µM [inhibitor, partial curve, poor fit]
CCOC(=O)Nc1ccc2c(c1)N(C(=O)CCCl)c1ccccc1[S@]2=O | inconclusive: 10 µM [inhibitor, partial curve]
O=C(NCCNc1ccc([N+](=O)[O-])cc1)c1ccccc1Cl | inconclusive: 8.91 µM [inhibitor, partial curve]
CC(/C=C1\SC(=S)N(C(C(=O)O)C(C)C)C1=O)=C\c1ccccc1 (centres undefined) | inconclusive: 10 µM [inhibitor, single point]
COC(=O)c1cc2c(-c3ccccc3)cc3ccccn3c-2c1C(=O)OC | inconclusive: 7.94 µM [inhibitor, partial curve, poor fit]
CSc1nc2ccc(S(=O)(=O)Nc3c(C)n(C)n(-c4ccccc4)c3=O)cc2s1 | inconclusive: 10 µM [inhibitor, single point]
O=C(/C=C/c1ccccc1)Nc1ncn[nH]1 | inconclusive: 7.94 µM [inhibitor, partial curve]
CCOC(=O)Nc1ccc2c(c1)N(C(=O)CCN1CCOCC1)c1ccccc1S2=O (centres undefined) | inconclusive: 22.4 µM [inhibitor, single point]
COc1cc(NC(=O)C2CCCN(S(=O)(=O)c3cn(C)cn3)C2)cc(OC)c1 (centres undefined) | inactive
